# Measured values as given in publication PMC12040169 (PLOS Biology, 2025).
# Like-named read-outs stand apart in the source and are kept apart here. Some of the results follow.
# System: T1, C. trachomatis L2/434/Bu expressing GFP (CTL2-GFP)
# T1 construct: L2/434/Bu GFP intracellular growth in HeLa cells
# Set-up: species or system HeLa; C. trachomatis total inclusion area by high-content imaging, normalised to DMSO
# Outline: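 After bulk GFP and resorufin fluorescence reads, cells were fixed, stained with Hoechst and imaged by high-content microscopy. Inclusion area and number (GFP) stood in for chlamydial growth, nuclei count (Hoechst) for host cell viability. MICs were derived as for the bulk readout.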
# [1] = total inclusion area; 28.5 h, 10 µM; inhibitor
Compound,% of control remaining [1],"% of control remaining (total inclusion area, 28.5 h, 10 µM, inhibitor)"
COc1cc(Cc2c(OCCN(C)C)nc3ccccn3c2=O)cc(OC)c1OC [CBK005004C],107.407,–
NC(=O)c1ccc(NC(=O)N2CCc3ccccc3C2)cc1 [CBK155299],87.1337,–
Cn1c(=O)c2c(ncn2Cc2noc(-c3ccoc3)n2)n(C)c1=O [CBK304945],82.8086,–
NS(=O)(=O)c1ccc(NC(=O)/C(=C/c2ccc(Br)cc2)NC(=O)c2ccccc2)cc1 [CBK262109],62.3693,–
CN(C(=O)C1CCN(C(=O)c2ccoc2)CC1)C(c1ccc(F)cc1)c1ccccn1 (stereo not shown) [CBK060206],104.321,–
CC(C)c1cc(C(C)C)c(S(=O)(=O)n2cnc3c2c(=O)[nH]c(=O)n3C)c(C(C)C)c1 [CBK018772],28.7779,–
CC(Oc1cccc(F)c1)C(=O)N(Cc1cccnc1)CC1CCCO1 (stereo not shown) [CBK305313],92.0779,–
COc1ccc(S(=O)(=O)NCCNC(=O)c2cc(-c3cccc(S(C)(=O)=O)c3)cnc2NCC2CC2)cc1 [CBK076425],106.245,–
CN1CCC[C@H]1C(=O)Nc1cccc2cc[nH]c12 [CBK160098],94.2898,–
O=C(NCCCc1ccccn1)C1(c2ccccc2F)CC1 [CBK283155],101.294,–
c1cncc(COc2cncc(OC3CCN(Cc4ccc5c(c4)OCO5)C3)n2)c1 (stereo not shown) [CBK084458],80.4387,–
O=C(N/N=C/c1ccc(Cl)cc1Cl)c1nc(-c2ccccc2)cc(-c2ccccc2)n1 [CBK262814],93.7715,–
CC(=O)Nc1nn(Cc2cc3c(cc2Cl)OCO3)c2ccccc12 [CBK048251],94.0628,–
CCc1cccc(C)c1NC(=O)C1C2CCC(O2)C1C(=O)O (stereo not shown) [CBK263676],95.7958,–
CC(C)(C)NC(=O)c1cccc(N2C(=O)c3ccc(C(=O)O)cc3C2=O)c1 [CBK287123],76.6822,–
CN(C)CCOC1OC(CO)C(O)C(O)C1O (stereo not shown) [CBK012476C],34.5983,–
COC(=O)c1ccc(N2CCN(Cc3nc(C)no3)C(C)C2)cc1 (stereo not shown) [CBK305998],66.5702,–
O=C(CN1C(=O)C2CCC(c3ccccc3)CC2C1=O)Nc1cccc2ccccc12 (stereo not shown) [CBK268061],98.8383,–
Nc1ccc(-c2cccc(C(F)(F)F)c2)c2ccccc12 [CBK084324],52.0981,–
c1ccc(CC2CCN(CCOc3ccccc3)CC2)cc1 [CBK126433],109.938,–
CCOC(=O)C1CCCN(Cc2nc(-c3ccc(F)cc3F)oc2C)C1 (stereo not shown) [CBK306749],62.3521,–
Cc1cccc(C)c1NC(=O)CN1CCN(c2nccnc2OC2CCCCC2)CC1 [CBK082835T],85.9036,–
S=C(Nc1cccc(Cl)c1Cl)Nc1nn(Cc2ccc(Cl)c(Cl)c2)cc1Cl [CBK267109],107.208,–
CN1CCC(N(C)C(=O)NCc2ccc(C#N)cc2)C1 (stereo not shown) [CBK156005],95.8402,–
O=C(O)[C@@H]1CC(O)CN1C(=O)c1ccc2noc(-c3ccccc3)c2c1 (stereo partly shown) [CBK286736],93.9197,–

Compound,% of control remaining [1],"% of control remaining (total inclusion area, 28.5 h, 10 µM, inhibitor)"
Cc1cc(OCc2nnc(SCC(=O)N3CCN(c4ccccc4)CC3)n2C)ccc1Cl [CBK268611],92.5773,–
COc1cccc(C(NC(=O)C2COc3ccc(OC)cc3C2)c2ccccc2)c1 (stereo not shown) [CBK285713],114.834,–
CC(=O)Oc1ccc2c(=O)cc(N(C)C)oc2c1C [CBK016581],93.1197,–
C=CCN1C(=O)CC2(C1=O)C(=O)N(CCCN1C(=O)c3ccccc3C1=O)c1ccc(Cl)cc12 (stereo not shown) [CBK075443],122.097,–
COc1ccc(C)cc1C1(CNC(=O)C2CC2C(=O)O)CCOCC1 (stereo not shown) [CBK304492],32.8595,–
CCc1c(C)nc2c(C)cccc2c1SCC(=O)O [CBK263554],88.2149,–
O=C(O)CCC(=O)Nc1ccc(-c2nc3cc(C(=O)c4ccccc4)ccc3[nH]2)cc1 [CBK267401],98.7337,–
CN(C)C(=O)CN1C(=O)CC2(C1=O)C(=O)N(CC(=O)O)c1ccc(F)cc12 (stereo not shown) [CBK076119],99.7716,–
O=C1CNC(=O)C2(C/C=C/C[C@H]3COCC[C@H]3N1)CCN(C(=O)Cc1cccnc1)CC2 [CBK292068],101.62,–
Clc1ccc(CN2CCCN(c3cc(OC4CCCCC4)ncn3)CC2)cc1Cl [CBK083338T],51.9501,–
Nc1nc(CSCCO)nc(Nc2ccc(F)cc2)n1 [CBK265542],109.869,–
CCCc1[nH]nc(O)c1Cc1ccccc1CS(=O)(=O)c1ccccc1 [CBK074347],92.8812,–
NCc1ccc(C(=O)N(CCc2cc(C(F)(F)F)cc(C(F)(F)F)c2)c2ccc(Cl)c(Cl)c2)cc1 [CBK008632T],30.6049,–
CN1C(=O)CC(NCc2ccc(S(N)(=O)=O)cc2)C1=O (stereo not shown) [CBK262352],104.361,–
CCN(CC)C(=O)[C@@H]1CCCN(C2CCN(C(=O)c3c4ccccc4cc4ccccc34)CC2)C1 [CBK066966C],89.9903,–
CC1(C)CC(=O)C2=C(C1)Nc1ccccc1N(CC(=O)O)C2c1cccs1 (stereo not shown) [CBK286597],84.7115,–
Cc1cc(S(=O)(=O)Nc2cc(C3CC3)nn2C)c(C)cc1Cl [CBK043994],80.9483,–
CCc1c(C)nc2c(C(=O)NCCCOC)cnn2c1C [CBK162149],103.491,–
O=C(NC(c1ccc(-c2ccccc2)cc1)c1cnccn1)C1CCN(CCc2ccc(F)cc2)CC1 (stereo not shown) [CBK147981],99.3081,–
Cc1ccc(S(=O)(=O)NC(C)C(=O)Nc2cc(-c3nc4ccccc4[nH]3)ccc2C)cc1 (stereo not shown) [CBK110320],99.78,–
COc1ccc(-c2nnc([C@H]3CCN(C(=O)C4CC4)C3)o2)cc1 [CBK289409],96.3516,–
CCOC(=O)c1cnn2c(O)cc(CN(Cc3cccs3)C3CC3)nc12 [CBK305625],77.5732,–
Cc1ccc(CN(CCCN(C)C)Cc2cccc(O)c2)o1 [CBK283173],67.6252,–
O=C(Nc1cccnc1)c1cnc2cc(C(F)(F)F)ccc2c1O [CBK107474T],–,84.073
